# In the supplement of paper PMC8728848:
# This is one part of the list.
# How the values were obtained:
# Experiment in all cases: glycan array binding signal (z-score within array); higher = stronger binding
# Conditions in all cases: glycan notation: IUPAC condensed, linker removed
# [1] = biological target: Fuc(a1-2)Gal(b1-4)[Fuc(a1-3)]GlcNAc
# In short: (§1)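 Glycan array binding is given as a within-array Z-score, which can be read as non-binding when negative. The arrays, 3228 of them, came from the Consortium for Functional Glycomics database and were retained only where the protein sequence was available. Z-scores were averaged across arrays of the same protein sequence at different concentrations or buffers and across linkers.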
# [2] = biological target: Fuc(a1-2)Gal(b1-4)[Fuc(a1-3)]GlcNAc(b1-2)Man(a1-3)[Fuc(a1-2)Gal(b1-4)[Fuc(a1-3)]GlcNAc(b1-2)Man(a1-6)]Man(b1-4)GlcNAc(b1-4)GlcNAc
# In short: as §1
# [3] = biological target: Fuc(a1-2)Gal(b1-4)[Fuc(a1-3)]GlcNAc(b1-2)[Fuc(a1-2)Gal(b1-4)[Fuc(a1-3)]GlcNAc(b1-4)]Man(a1-3)[Fuc(a1-2)Gal(b1-4)[Fuc(a1-3)]GlcNAc(b1-2)Man(a1-6)]Man(b1-4)GlcNAc(b1-4)GlcNAc
# In short: as §1
# [4] = biological target: Fuc(a1-2)Gal(b1-4)[Fuc(a1-3)]GlcNAc(b1-3)Gal(b1-4)[Fuc(a1-3)]GlcNAc
# In short: as §1
# [5] = biological target: Fuc(a1-2)Gal(b1-4)[Fuc(a1-3)]GlcNAc(b1-3)Gal(b1-4)[Fuc(a1-3)]GlcNAc(b1-3)Gal(b1-4)[Fuc(a1-3)]GlcNAc
# In short: as §1
# [6] = biological target: Fuc(a1-2)Gal(b1-4)[Fuc(a1-3)]GlcNAc(b1-3)GalNAc
# In short: as §1
# Fuc(a1-2)Gal6S(b1-4)Glc = biological target: Fuc(a1-2)Gal6S(b1-4)Glc
# In short: as §1
# [7] = biological target: Fuc(a1-2)Gal6S(b1-4)Glc6S
# In short: as §1
# [8] = biological target: Fuc(a1-2)Gal6S(b1-4)GlcNAc
# In short: as §1
# Fuc(a1-2)[Gal(a1-3)]Gal = biological target: Fuc(a1-2)[Gal(a1-3)]Gal
# In short: as §1
# [9] = biological target: Fuc(a1-2)[Gal(a1-3)]Gal(b1-3)GalNAc
# In short: as §1
# [10] = biological target: Fuc(a1-2)[Gal(a1-3)]Gal(b1-3)GlcNAc
# In short: as §1
# [11] = biological target: Fuc(a1-2)[Gal(a1-3)]Gal(b1-3)GlcNAc(b1-2)Man(a1-3)[Fuc(a1-2)[Gal(a1-3)]Gal(b1-3)GlcNAc(b1-2)Man(a1-6)]Man(b1-4)GlcNAc(b1-4)GlcNAc
# In short: as §1
# [12] = biological target: Fuc(a1-2)[Gal(a1-3)]Gal(b1-3)GlcNAc(b1-2)Man(a1-3)[Fuc(a1-2)[Gal(a1-3)]Gal(b1-3)GlcNAc(b1-2)Man(a1-6)]Man(b1-4)GlcNAc(b1-4)[Fuc(a1-6)]GlcNAc
# In short: as §1
# [13] = biological target: Fuc(a1-2)[Gal(a1-3)]Gal(b1-3)GlcNAc(b1-3)GalNAc
# In short: as §1
# [14] = biological target: Fuc(a1-2)[Gal(a1-3)]Gal(b1-4)Glc
# In short: as §1
# [15] = biological target: Fuc(a1-2)[Gal(a1-3)]Gal(b1-4)GlcNAc
# In short: as §1
# [16] = biological target: Fuc(a1-2)[Gal(a1-3)]Gal(b1-4)GlcNAc(b1-2)Man(a1-3)[Fuc(a1-2)[Gal(a1-3)]Gal(b1-4)GlcNAc(b1-2)Man(a1-6)]Man(b1-4)GlcNAc(b1-4)GlcNAc
# In short: as §1
# [17] = biological target: Fuc(a1-2)[Gal(a1-3)]Gal(b1-4)GlcNAc(b1-2)Man(a1-3)[Fuc(a1-2)[Gal(a1-3)]Gal(b1-4)GlcNAc(b1-2)Man(a1-6)]Man(b1-4)GlcNAc(b1-4)[Fuc(a1-6)]GlcNAc
# In short: as §1
# [18] = biological target: Fuc(a1-2)[Gal(a1-3)]Gal(b1-4)GlcNAc(b1-3)GalNAc
# In short: as §1
# [19] = biological target: Fuc(a1-2)[Gal(a1-3)]Gal(b1-4)[Fuc(a1-3)]Glc
# In short: as §1
# [20] = biological target: Fuc(a1-2)[Gal(a1-3)]Gal(b1-4)[Fuc(a1-3)]GlcNAc
# In short: as §1
# [21] = biological target: Fuc(a1-2)[Gal(a1-3)]Gal(b1-4)[Fuc(a1-3)]GlcNAc(b1-3)GalNAc
# In short: as §1
# [22] = biological target: Fuc(a1-2)[Gal(a1-4)]Gal(b1-4)GlcNAc
# In short: as §1
# [23] = biological target: Fuc(a1-2)[GalNAc(a1-3)]Gal
# In short: as §1
# [24] = biological target: Fuc(a1-2)[GalNAc(a1-3)]Gal(b1-3)GalNAc(a1-3)[Fuc(a1-2)]Gal(b1-4)GlcNAc
# In short: as §1
# [25] = biological target: Fuc(a1-2)[GalNAc(a1-3)]Gal(b1-3)GlcNAc
# In short: as §1
# [26] = biological target: Fuc(a1-2)[GalNAc(a1-3)]Gal(b1-3)GlcNAc(b1-2)Man(a1-3)[Fuc(a1-2)[GalNAc(a1-3)]Gal(b1-3)GlcNAc(b1-2)Man(a1-6)]Man(b1-4)GlcNAc(b1-4)GlcNAc
# In short: as §1
# [27] = biological target: Fuc(a1-2)[GalNAc(a1-3)]Gal(b1-3)GlcNAc(b1-2)Man(a1-3)[Fuc(a1-2)[GalNAc(a1-3)]Gal(b1-3)GlcNAc(b1-2)Man(a1-6)]Man(b1-4)GlcNAc(b1-4)[Fuc(a1-6)]GlcNAc
# In short: as §1
# [28] = biological target: Fuc(a1-2)[GalNAc(a1-3)]Gal(b1-3)GlcNAc(b1-3)GalNAc
# In short: as §1
binder,measurement,setting,value
"CVN (Nostoc ellipsosporum), P81180 (protein) LGKFSQTCYNSAIQGSVLTSTCERTNGGYNTSSIDLNSVIENVDGSLKWQPSNFIETCRNTQLAGSSELAAECKTRAQQFVSTKINLDDHIANIDGTLKYE",glycan array binding signal (z-score),[1],-0.297
same,glycan array binding signal (z-score),[2],0.311
same,glycan array binding signal (z-score),[3],0.557
same,glycan array binding signal (z-score),[4],-0.227
same,glycan array binding signal (z-score),[5],0.402
same,glycan array binding signal (z-score),[6],1.02
same,glycan array binding signal (z-score),Fuc(a1-2)Gal6S(b1-4)Glc,-0.295
same,glycan array binding signal (z-score),[7],-0.064
same,glycan array binding signal (z-score),[8],-0.3
same,glycan array binding signal (z-score),Fuc(a1-2)[Gal(a1-3)]Gal,-0.3
same,glycan array binding signal (z-score),[9],-0.304
same,glycan array binding signal (z-score),[10],-0.304
same,glycan array binding signal (z-score),[11],0.868
same,glycan array binding signal (z-score),[12],2.17
same,glycan array binding signal (z-score),[13],-0.163
same,glycan array binding signal (z-score),[14],-0.297
same,glycan array binding signal (z-score),[15],-0.308
same,glycan array binding signal (z-score),[16],0.048
same,glycan array binding signal (z-score),[17],1.44
same,glycan array binding signal (z-score),[18],-0.277
same,glycan array binding signal (z-score),[19],-0.107
same,glycan array binding signal (z-score),[20],-0.299
same,glycan array binding signal (z-score),[21],-0.122
same,glycan array binding signal (z-score),[22],-0.303
same,glycan array binding signal (z-score),[23],-0.306
same,glycan array binding signal (z-score),[24],-0.276
same,glycan array binding signal (z-score),[25],-0.3
same,glycan array binding signal (z-score),[26],0.427
same,glycan array binding signal (z-score),[27],2.83
same,glycan array binding signal (z-score),[28],-0.06
